Data from PubChem BioAssay AID1963576 (National Center for Advancing Translational Sciences (NCATS), 2024).
The whole screen tested about 46,000 compounds, of which about 60 (0.1%) were called active. Inconclusive results (about 3%) are left out. The call rests on the fitted dose curve; in most records, active means well fitted inhibition curve with a large enough effect; inconclusive means small, poorly fitted or top-dose-only effect; inactive means no such curve, though single readings can be large or run the other way. The list shows a part of the results.

Assay: Primary qHTS assay for Inhibitors of ovarian cancer metastasis using an organotypic tumor microenvironment (TME) model. Further: nearly all actives have a fitted effect of over 65% in size.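 On activity change, negative = inhibition: plate controls were DMSO wells for no effect and tomatine positive control wells for full effect.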
Settings: SKOV3ip1-GFP adhesion/invasion on 3D omental model, fluorescence; series mostly up to 45.8 µM; activity change, negative = inhibition: at the top concentration
Summary of the method: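 qHTS, 4-pt dose (0.36-46 umol/L); SKOV3ip1-GFP, 1,200 cells/well, no FBS; primary omental fibroblast/mesothelial co-culture 48 h pre-grown; 2 h RT + 16 h 37 C; PBS wash, 4% PFA; GFP count 488/509 nm.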

Activity change, negative = inhibition, inactive:
Cc1ccc(-n2c(C)nc3c(cnn3-c3ccccc3)c2=O)cc1 -7.42%, CN1C(=O)Cc2cc(S(=O)(=O)NCc3ccccc3Cl)ccc21 1.34%, O=C(c1ccc(Br)cc1)N(Cc1ccco1)c1ccccn1 -0.114%, CO[C@H]1/C=C\O[C@@]2(C)Oc3c(C)c(O)c4c(O)c(c5c(nc6cc(C)ccn65)c4c3C2=O)NC(=O)C(C)=CC=C[C@H](C)[C@H](O)[C@@H](C)[C@@H](O)[C@@H](C)[C@H](OC(C)=O)[C@H]1C -15.4%, CCc1ccccc1NC(=O)CC1NCCNC1=O (configuration not stated) -1.61%, Cc1cc(Nc2cc(CN3CCOCC3)c3nc(C)c(Cc4ccc(Cl)cc4F)n3n2)n[nH]1 -18.1%, O=C(C1CCC(CNS(=O)(=O)c2ccc(Br)s2)CC1)N1CCN(c2ccc(F)cc2)CC1 (configuration not stated) -8.23%, O=C(Nc1cccc(Cl)c1)N1CC2CCCN2c2ccccc21 (configuration not stated) -4.71%, CCOc1ccc(NC(=O)Cn2c(=O)n(CCCCC(=O)NCCc3ccc(Cl)cc3)c(=O)c3ccccc32)cc1 -5.65%, CCOc1ccc(C(=O)Nc2ccc3oc(-c4ccc(C)cc4C)nc3c2)cc1Br 3.07%, CCOc1ccccc1NC(=O)c1c2c(nc3ccccc13)C(=O)N(C1CCCCC1)C2 2.03%, COc1ccc(-c2nc3n(n2)C(c2ccccc2OC)C(C(=O)Nc2cccnc2)=C(C)N3)cc1 (configuration not stated) -13.3%, Nc1nnc(-c2cccc(Cl)c2Cl)c(N)n1 -11.4%, CCOC(=O)N1CCc2c(sc(NCc3ccc(N(CC)CC)cc3)c2C(=O)Nc2cc(OC)ccc2OC)C1 1.75%, CCOc1ccc(-n2c(SCC(=O)NCc3ccccc3)nc3n[nH]c(C)c3c2=N)cc1 -7.37%, CCC1CN(C(=O)N2CCC(C(=O)N3CCN(c4ccccc4)CC3)CC2)c2ccccc2O1 (configuration not stated) -17%, Cc1ccc(-n2c(=O)c3ccc(C(=O)NCc4ccco4)cc3n(CC(=O)Nc3ccc(C)c(F)c3)c2=O)cc1 3.38%, Cc1ccc(NS(=O)(=O)c2ccc3c(c2)N(C)C(=O)CC(=O)N3C)cc1Cl -10.6%, CC1Cc2cc(S(=O)(=O)CCC(=O)Nc3ccccc3F)ccc2N1C(=O)C1CC1 (configuration not stated) -4.31%, Cc1cc(C)n(C(C)CC(=O)Nc2ccc(Cl)cc2C)n1 (configuration not stated) 0.71%, CCOc1ccc(Sc2cc(C(=O)NCc3ccc(C)cc3)c3ccccc3n2)cc1 -5.7%, COc1ccc(Cn2ccc3nc(C)c(C(=O)Nc4cc(OC)c(OC)c(OC)c4)cc3c2=O)cc1 -7.49%, CCOc1ccccc1NS(=O)(=O)c1cc2[nH]c(=O)c(=O)[nH]c2cc1C -8.45%, CCCCC(=O)N1CCc2cc(OC)c(OC)cc2C1COc1ccc(C(=O)OCC)cc1 (configuration not stated) 28.8%, CC[C@@]1(O)C(=O)OCc2c1cc1n(c2=O)Cc2cc3c(CN(C)C)c(O)ccc3nc2-1 7.73%, Cc1cc(C)cc(-n2ccn(CC(=O)c3ccc(F)cc3)c(=O)c2=O)c1 0.907%, O=C(NCc1ccco1)c1ccc2c(c1)N(Cc1ccccc1)C(=O)c1ccccc1S2 2.7%, CCC1CCCCN1C(=O)c1c[nH]c2ccc(S(=O)(=O)Nc3cccc(OC)c3)cc2c1=O (configuration not stated) 14.2%, COC(=O)c1scc(-c2ccc(C)cc2)c1S(=O)(=O)N1CCN(c2ccc(F)cc2)CC1 0.125%, Nc1c(C(=O)NCc2cccs2)nnn1CC(=O)Nc1cccc(F)c1 -2.24%, O=C(c1ccc(CS(=O)(=O)c2ccc(Br)cc2)o1)N1CCN(c2ccc(F)cc2)CC1 -5.88%, Cc1ccc(NC(=O)c2sc3ncnc(N(C)C4CCCCC4)c3c2C)c(C)c1 1.35%, O=C(O)c1ccc(NS(=O)(=O)c2ccc(Cl)c(C(=O)Nc3ccccc3)c2)cc1 3.45%, Cc1ccc(N(C)S(=O)(=O)c2ccc3[nH]c(=O)ccc3c2)cc1 12.3%, Cc1c(NC(=O)Nc2ccc(Cl)c(Cl)c2)sc2nc3n(c(=O)c12)CCC(C)CC3 (configuration not stated) 8.39%, COC(=O)c1ccc(CSc2c(C(C)C)cnc3c2c(=O)n(C)c(=O)n3C)cc1 -6.86%, Cc1oc2c(cc(NS(=O)(=O)c3ccc(C(C)C)cc3)c3ccccc32)c1C(=O)OCc1ccccc1 -9.44%, Cc1cccc(C2=Nc3ccccc3N=C(c3cc(Cl)ccc3O)C2)c1 2.44%, O=C(Nc1nc2n(n1)C(c1ccc(F)cc1)C=C(c1ccc(Cl)cc1)N2)c1ccc([N+](=O)[O-])cc1 (configuration not stated) 0.369%, COc1ccc(NC(=O)c2cnn(-c3ccc(C)c(C)c3)c2C2CCNCC2)cc1OC 6.89%, COc1ccccc1CC(=O)Nc1ccc2nc(Nc3cccc(C(F)(F)F)c3)cc(C)c2c1 1.41%, CCOc1ccc(-n2c(C)nc3cc(C(=O)NC4CCCC4)ccc32)cc1 7.98%, Cc1cccc(NC(=O)/C(C#N)=C/c2ccco2)c1 -1.49%, COc1ccc(OC)c(CNC(=O)c2cc3c(Cl)nc4ccccc4c3s2)c1 -3.82%, CCCNC(=O)Cn1nc(-c2ccc(OC)cc2)c2cnc3ccc(F)cc3c21 -4.34%, O=C(Nc1cccc(Br)c1)N1CCN2CCCCC2C1 (configuration not stated) 21.3%, CC(=O)c1cccc(NS(=O)(=O)c2ccc3[nH]c4c(c3c2)CCCCC4)c1 -10.6%, CCN1CCN(c2ccc(Nc3cc(N(C)C(=O)Nc4c(Cl)c(OC)cc(OC)c4Cl)ncn3)cc2)CC1 1.91%, COc1ccc(-c2c(C)nn3c(C(F)(F)F)cc(-c4ccc(C)cc4)nc23)cc1 -3%, COc1ccc(C(CC(=O)Nc2cc(Cl)c(OC)cc2OC)N2Cc3ccccc3C2=O)cc1 (configuration not stated) 0.621%, COc1ccc(NC(=O)C(c2ccccc2)N(C)C(=O)/C=C\c2ccc3c(c2)OCO3)cc1 (configuration not stated) 1.27%, Cc1cn2c(=O)c(S(=O)(=O)Nc3ccc(OC(F)(F)F)cc3)c(C)nc2s1 4.67%, CC(=O)NNc1ncnc2c1cnn2-c1ccccc1 2.96%, COC(=O)c1cnc(N2CCN(c3ccc(OC)cc3)CC2)c2ccccc12 -2.28%, COC(=O)c1c(-c2ccc(Cl)cc2)noc1N1CCN(c2ccc(C(C)=O)cc2)CC1 -2.92%, CCCNC(=O)CCc1c(C)nc2nc(CNC(=O)c3ccccc3)nn2c1C -3.38%, CCCCc1ccc(NC(=O)CSc2nc3ccccc3nc2N2CCCCC2)cc1 4.88%, COc1ccc(NC(=O)c2oc3ccccc3c2NC(=O)c2cc3ccccc3o2)c(OC)c1 -11.3%, CCOc1ccc(NC(=O)C(CC)n2nc(C)c3c(C)n(-c4ccccc4)nc3c2=O)cc1 (configuration not stated) 16.8%, Cc1ccc(F)cc1NC(=O)CSc1nc(-c2cccs2)cc(C(F)(F)F)n1 -0.707%, COC(=O)c1ccccc1NC(=O)CCCn1nc(C)c2c(C)n(-c3ccccc3)nc2c1=O 5.35%, CCOc1ccccc1CNC(=O)c1ccc(-n2c(C)cc3c2CCC(C)C3)cc1 (configuration not stated) -3.64%, CCn1c2ccccc2c2cc(CN3CCN(Cc4cccc(Cl)c4)CC3)ccc21 -41%, COc1cccc(NC(=O)CCNC(=O)Cn2cnc3ccccc3c2=O)c1 8.13%, COc1cc(C(CC(=O)NCc2ccccc2Cl)N2Cc3ccccc3C2=O)cc(OC)c1OC (configuration not stated) -11.9%, Cc1ccc(-c2onc(C)c2C)cc1S(=O)(=O)N1CCN(c2ccccc2F)CC1 -4%, COc1cc(OC)c(NC(=O)Nc2ccc3c(c2)N(C)C(=O)c2ccccc2S3)cc1Cl 12.4%, Cc1ccc(NC(=O)C(=O)NCC(c2cccnc2)N2CCN(Cc3ccccc3)CC2)cc1Cl (configuration not stated) 8.78%, CCCOc1ccc(Oc2nc(NC)nc(N3CCOCC3)n2)nn1 -3.44%, COC(=O)c1sc(N2C(=O)c3oc4ccc(C)cc4c(=O)c3C2c2ccc(OC)cc2)nc1C (configuration not stated) -0.643%, Cc1cc(Cl)ccc1NC(=O)CSc1nc2c(c(=O)[nH]1)CCC2 7.47%, Cc1ccc(CNC(=O)c2cc(-c3ccc(C)c(C)c3)nc3ccccc23)cc1 -0.159%, Cc1ccc(Cl)cc1N1CCN(c2nc3ccccc3c3nc(-c4cccnc4)nn23)CC1 -6.45%, Cc1ccc(C(=O)O)cc1NC(=O)c1nsc2ccccc12 -8.93%, COc1ccc(NC(=O)CSc2nc(-c3cc(OC)c(OC)c(OC)c3)[nH]c2-c2ccc(F)cc2)cc1 -1.72%

outcome, inactive:
CCc1ccc(NC(=O)Cn2c(=O)n(-c3cccc(OC)c3)c(=O)c3c(C)c(C(=O)N(C)C)sc32)cc1, O=S(=O)(NCC(c1cccs1)S(=O)(=O)c1ccccc1)c1ccccc1 (configuration not stated), COc1ccc(CNC(=O)c2ccc3c(c2)nc2n3CCCCC2)cc1, COc1cccc(CN2C(=O)C3(SCC(=O)N3c3ccc(C)c(Cl)c3)c3ccccc32)c1 (configuration not stated), Cc1cccc(C(=O)n2nc(C)c(S(=O)(=O)N3CCOCC3)c2C)c1, CCOC(=O)c1cc(-c2ccc(C)cc2)n(CCCC(=O)Nc2cc(C)ccc2C)c1, CCOc1ccc(NC(=O)CCc2c(C)nc3cc(-c4ccccc4OC)nn3c2C)cc1, N#C/C(=C\c1ccc(OCc2ccc(Cl)cc2Cl)cc1)c1nc2ccccc2[nH]1, COc1ccc(CNC(=O)Cn2c(=O)n3nc(-c4ccc(OC)cc4)nc3c3ccccc32)cc1, CCOc1ccc(C(=O)Nc2ccc3nc(Nc4cccc(C(F)(F)F)c4)cc(C)c3c2)cc1OCC, COc1ccc(-c2noc(CSc3nnc(C)n3-c3ccc(F)cc3)n2)cc1, Cc1ccccc1OCC(=O)Nc1c(C(=O)Nc2ccccc2F)oc2ccccc12, Cc1ccccc1NS(=O)(=O)c1ccc2[nH]cc(C(=O)NCCc3ccccc3)c(=O)c2c1, CCOC(=O)c1ccc(NC(=O)CS(=O)(=O)Cc2nc(-c3ccc(C)cc3)oc2C)cc1, Cc1ccc(NC(=O)CN2C(=O)CC(c3ccco3)Sc3ccccc32)cc1Cl (configuration not stated), COc1cc(OC)cc(-n2c(=O)c3sccc3n(Cc3ccc(F)cc3)c2=O)c1, COc1ccc(CCNC(=O)CN2C(=O)COc3ccc(S(=O)(=O)N4CCCC4)cc32)cc1OC
